Among all 310,000 compounds or so, about 2,200 (0.71%) showed an effect of 50% or more. Effects have a minus sign here. The list shows a part of the results.
biological target: human ether-à-go-go-related gene (hERG) potassium channel (human, UniProt Q12809); experiment: primary screen, population patch clamp on CHO cells stably expressing hERG
Sequence (Q12809 whole entry, looked up): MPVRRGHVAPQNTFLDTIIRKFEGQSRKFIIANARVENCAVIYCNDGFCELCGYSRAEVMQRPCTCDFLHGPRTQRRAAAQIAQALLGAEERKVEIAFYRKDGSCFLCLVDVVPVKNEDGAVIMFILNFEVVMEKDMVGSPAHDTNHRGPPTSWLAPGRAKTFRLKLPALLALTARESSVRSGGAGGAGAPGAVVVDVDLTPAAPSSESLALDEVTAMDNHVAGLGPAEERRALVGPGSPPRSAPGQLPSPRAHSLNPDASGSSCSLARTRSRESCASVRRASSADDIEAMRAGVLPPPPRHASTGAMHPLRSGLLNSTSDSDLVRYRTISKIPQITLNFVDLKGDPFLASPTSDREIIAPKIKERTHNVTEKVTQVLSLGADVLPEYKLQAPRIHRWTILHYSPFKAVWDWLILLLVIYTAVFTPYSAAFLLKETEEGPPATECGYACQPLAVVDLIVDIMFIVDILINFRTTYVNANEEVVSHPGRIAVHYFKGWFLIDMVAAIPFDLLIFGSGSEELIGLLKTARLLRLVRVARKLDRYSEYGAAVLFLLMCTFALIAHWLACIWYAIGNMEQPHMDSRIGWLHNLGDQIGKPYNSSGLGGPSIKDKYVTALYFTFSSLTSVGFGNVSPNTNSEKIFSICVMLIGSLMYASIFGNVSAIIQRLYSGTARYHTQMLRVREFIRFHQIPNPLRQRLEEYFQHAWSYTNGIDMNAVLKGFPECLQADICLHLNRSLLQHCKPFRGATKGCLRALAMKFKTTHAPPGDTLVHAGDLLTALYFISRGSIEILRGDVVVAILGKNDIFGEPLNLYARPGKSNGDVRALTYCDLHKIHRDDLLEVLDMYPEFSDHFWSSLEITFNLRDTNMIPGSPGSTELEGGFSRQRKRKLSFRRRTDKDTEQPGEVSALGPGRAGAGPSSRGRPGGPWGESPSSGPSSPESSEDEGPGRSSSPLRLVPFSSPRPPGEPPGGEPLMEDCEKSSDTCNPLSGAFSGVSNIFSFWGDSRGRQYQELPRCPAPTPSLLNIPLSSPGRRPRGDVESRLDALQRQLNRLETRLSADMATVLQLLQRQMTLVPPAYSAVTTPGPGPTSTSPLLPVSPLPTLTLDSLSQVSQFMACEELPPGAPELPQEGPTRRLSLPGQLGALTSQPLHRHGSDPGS

Q: For `Cc1ccc2nc(NC(=O)c3cccs3)sc2c1`, which “hERG current change (%, negative = inhibition) at 1uM” value is on record?
A: 7.6%

Q: `COC(=O)N/N=C\c1ccccc1OC/C=C/c1ccccc1` was tested. Which “hERG current change (%, negative = inhibition) at 1uM” value did it give?
A: 9.39%

Q: For `CSc1c(CC(=O)Nc2ccccc2Cl)n(Cc2ccccc2)c2ccccc12`, which “hERG current change (%, negative = inhibition) at 1uM” value is on record?
A: 8.62%

Q: How did the “hERG current change (%, negative = inhibition) at 1uM” value turn out when `CCN(CC)CCN(C(=O)C1=COCCO1)c1nc2ccc(C)cc2s1.Cl` was run?
A: -34%

Q: For `CCC1CCCCN1CCCNC(=O)C(C)n1nc(C)c2sc3ccccc3c2c1=O` (centres unmarked), which “hERG current change (%, negative = inhibition) at 1uM” value is on record?
A: -3.95%

Q: `O=C(Nc1ccc2c(c1)CCC2)c1ccc(Br)s1` was tested. Which “hERG current change (%, negative = inhibition) at 1uM” value did it give?
A: 27.1%

Q: Which “hERG current change (%, negative = inhibition) at 1uM” value does the source give for `O=C(/C=C/c1ccccc1)Nc1ccc(CN2CCOCC2)cc1` here?
A: -25.4%

Q: How did the “hERG current change (%, negative = inhibition) at 1uM” value turn out when `O=C1COc2ccc(C(=O)NCc3ccco3)cc2N1` was run?
A: 10.1%

Q: With `Cc1c(C(=O)N2CC3(CC(c4cccc(NC(=O)CC(c5ccccc5)c5ccccc5)c4)=NO3)C[C@@H]2C(N)=O)cc([N+](=O)[O-])cc1[N+](=O)[O-]` (some centres unmarked) as the molecule, how does the “hERG current change (%, negative = inhibition) at 1uM” value read?
A: 16.5%

Q: For `O=C(O)c1ccc(S(=O)(=O)NC2CCCCC2)cc1`, which “hERG current change (%, negative = inhibition) at 1uM” value is on record?
A: 29.9%

Q: For `COC(=O)CSc1nnc([C@H](Cc2ccccc2)NC(=O)OC(C)(C)C)o1`, which “hERG current change (%, negative = inhibition) at 1uM” value is on record?
A: 8.59%

Q: For `Cc1cc(Cl)ccc1OCC(=O)OCC(=O)N(CC(C)C)c1c(N)n(Cc2ccccc2)c(=O)[nH]c1=O`, which “hERG current change (%, negative = inhibition) at 1uM” value is on record?
A: 21.6%

Q: How did the “hERG current change (%, negative = inhibition) at 1uM” value turn out when `COc1cc(/C=C2/SC(=O)N(Cc3ccccc3)C2=O)ccc1OCc1ccncc1` was run?
A: 14.1%

Q: For `CCn1c(/C=C/c2cc[n+](C)cc2)nc2ccccc21.[I-]`, which “hERG current change (%, negative = inhibition) at 1uM” value is on record?
A: 6.03%

Q: `Cc1c(C(c2ccc(Br)cc2)c2c(O)c3ccccc3oc2=O)c(=O)n(-c2ccccc2)n1C` (centres unmarked) was tested. Which “hERG current change (%, negative = inhibition) at 1uM” value did it give?
A: 6.58%

Q: Which “hERG current change (%, negative = inhibition) at 1uM” value does the source give for `CCc1ccc(CCC(=O)Nc2ccc(C(C)=O)cc2)o1` here?
A: 14.5%

Q: `Cc1ccc(F)cc1S(=O)(=O)Nc1cccc(C(=O)N2CCCC(C(N)=O)C2)c1` (centres unmarked) was tested. Which “hERG current change (%, negative = inhibition) at 1uM” value did it give?
A: 8.23%

Q: `CCN(Cc1ccccc1)C(=O)Cc1ccc(OC)c(S(=O)(=O)N2CCOCC2)c1` was tested. Which “hERG current change (%, negative = inhibition) at 1uM” value did it give?
A: -2.57%

Q: For `CCc1noc(C)c1C(=O)Nc1sc(C(=O)N(C)C)c(C)c1C(=O)OC`, which “hERG current change (%, negative = inhibition) at 1uM” value is on record?
A: -6.16%

Q: Which “hERG current change (%, negative = inhibition) at 1uM” value does the source give for `CCCC(=O)OCC(=O)Nc1ccc([N+](=O)[O-])cc1C#N` here?
A: 13.7%

Q: For `COc1cc(NC(=O)CCCn2c(=S)[nH]c3ccccc3c2=O)cc(OC)c1OC`, which “hERG current change (%, negative = inhibition) at 1uM” value is on record?
A: 4.64%

Q: `O=C(Nc1ccc(N2CCN(C(=O)c3ccco3)CC2)cc1)c1cccnc1Cl` was tested. Which “hERG current change (%, negative = inhibition) at 1uM” value did it give?
A: 5.13%

Q: How did the “hERG current change (%, negative = inhibition) at 1uM” value turn out when `Cc1cc(F)ccc1S(=O)(=O)N1CCCOC1CNC(=O)C(=O)NC1CC1` (centres unmarked) was run?
A: -7.83%

Q: `Cc1ccc(S(=O)(=O)/N=C2/C=C(Sc3ncn[nH]3)C(=O)c3ccccc32)cc1` was tested. Which “hERG current change (%, negative = inhibition) at 1uM” value did it give?
A: 4.41%

Q: How did the “hERG current change (%, negative = inhibition) at 1uM” value turn out when `Cc1ccc(NC(=O)CN(C)C(=O)CSc2nc(C)cc(C)n2)cc1` was run?
A: 9.28%

Q: With `Clc1ccc(C2Nc3cccc4cccc(c34)N2)cc1` as the molecule, how does the “hERG current change (%, negative = inhibition) at 1uM” value read?
A: 1.35%

Q: `CCN(CC)c1ccc(/C=N/OC(C)C(=O)Nc2ccc(C)cc2)cc1` (centres unmarked) was tested. Which “hERG current change (%, negative = inhibition) at 1uM” value did it give?
A: 2.48%

Q: Which “hERG current change (%, negative = inhibition) at 1uM” value does the source give for `O=C1N/C(=C/c2cccn2-c2ccccc2)C(=O)N1Cc1ccc(F)cc1` here?
A: 13.5%

Q: How did the “hERG current change (%, negative = inhibition) at 1uM” value turn out when `CCCC(=O)NC(C)c1nc2ccccc2[nH]1` (centres unmarked) was run?
A: 10.8%

Q: `O=[N+]([O-])c1ccc(OCCOc2ccccc2/C=N/n2cnnc2)cc1` was tested. Which “hERG current change (%, negative = inhibition) at 1uM” value did it give?
A: 4.9%

Q: For `CCOC(=O)C(=O)N1CCC(C(=O)OC)CC1`, which “hERG current change (%, negative = inhibition) at 1uM” value is on record?
A: 17.5%

Q: For `Cc1noc(C)c1C(=O)N1CCOCC1`, which “hERG current change (%, negative = inhibition) at 1uM” value is on record?
A: 17.4%

Q: With `CCCS(=O)(=O)c1c(S(=O)(=O)CCC)c2ccc(C(C)=O)cn2c1C(=O)OC` as the molecule, how does the “hERG current change (%, negative = inhibition) at 1uM” value read?
A: 2.09%

Q: Which “hERG current change (%, negative = inhibition) at 1uM” value does the source give for `CCOC(=O)C1CCN(C(=O)Cn2cc(C#N)c3ccccc32)CC1` here?
A: -0.737%

Q: Which “hERG current change (%, negative = inhibition) at 1uM” value does the source give for `COc1ccc(CNC(=O)C2CCC(CNS(=O)(=O)c3ccccc3)CC2)cc1` (centres unmarked) here?
A: 8.61%

Q: How did the “hERG current change (%, negative = inhibition) at 1uM” value turn out when `CNC(=O)c1ccsc1NC(=O)C1CCN(S(=O)(=O)c2ccc(Cl)s2)CC1` was run?
A: -7.31%

Q: How did the “hERG current change (%, negative = inhibition) at 1uM” value turn out when `CCN(CC)c1ccc(C2C3CCCCC3(O)CCN2CC(=O)N2CCCCC2)cc1` (centres unmarked) was run?
A: 10.7%

Q: `COc1cc(CC(=O)OCc2cccc([N+](=O)[O-])c2)cc(OC)c1OC` was tested. Which “hERG current change (%, negative = inhibition) at 1uM” value did it give?
A: 9.63%

Q: `CSc1ccc(CC(=O)N2CCC(n3nccc3NC(=O)C3CC3)CC2)cc1` was tested. Which “hERG current change (%, negative = inhibition) at 1uM” value did it give?
A: 10.1%

Q: `Cc1ccc2oc(=O)n(CC(=O)c3ccc(F)cc3)c2c1` was tested. Which “hERG current change (%, negative = inhibition) at 1uM” value did it give?
A: 9.6%

Q: How did the “hERG current change (%, negative = inhibition) at 1uM” value turn out when `N#CCCn1cc(/C=C/C(=O)O)c(-c2ccc(F)cc2)n1` was run?
A: 4.25%

Q: For `CCOC(=O)c1c(SC)n(-c2ccccc2)c(=S)n(-c2ccccc2)c1=O`, which “hERG current change (%, negative = inhibition) at 1uM” value is on record?
A: 13.8%

Q: With `CCN(CC(=O)NC(=O)Nc1ccccc1F)Cc1ccccc1` as the molecule, how does the “hERG current change (%, negative = inhibition) at 1uM” value read?
A: 13.2%

Q: How did the “hERG current change (%, negative = inhibition) at 1uM” value turn out when `Cc1ccc(-c2cc(C(=O)NCCN3CCOCC3)c3ccccc3n2)o1` was run?
A: 9.3%
